Four compounds from PubChem BioAssay (NCI) can be followed below.

Holding throughout (assay): NCI-60 cell line screen, 48 h
Assay [1] relates to A498 renal.
Assay [2] deals with CCRF-CEM leukemia.
Assay [3] has as its system K-562 leukemia.
Assay [4] relates to KM20L2 colon.
In assay [5] the test system is MDA-MB-435.
In assay [6] the test system is MDA-N.
Assay [7] has as its system MOLT-4 leukemia.
Assay [8] has as its system NCI/ADR-RES ovarian.
Assay [9] concerns ACHN renal.
Assay [10] concerns DU-145 prostate.
Assay [11] relates to OVCAR-3 ovarian.
Assay [12] relates to TK-10 renal.
The subject of assay [13] is HT29 colon.
Assay [14] relates to UACC-257 melanoma.

The structures appear in SMILES notation.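 Five concentrations, 48 hours, 96-well plates. Here, GI50 denotes the concentration required for 50% inhibition of growth.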 Some entries of the source have several records that differ or are many. This is not the full list of results. An entry can have further records. For some of these results: A record mostly stands for its own series of concentrations, which the source does not state; a value can be the end of its range. For some of these results: The records of an entry repeat one measurement across runs, samples, wells, individuals or studies. A tag in brackets gives the origin of a value. The letters are not those of the source and start again with each entry.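 TGI: total growth inhibition.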

With `CN(C)c1ccc(C(=N)c2ccc(N(C)C)cc2)cc1`, the GI50 in assay [1] was 1.51 µM [sample A, 1 test] and 132 nM [sample B, 1 test].
For the compound `COC1CC(C)C(OC)c2cc(O)cc(c2O)NC(=O)/C(C)=C/C=C\C(C)C(OC(N)=O)/C(C)=C\C(C)C1OC` (stereo unspecified), the TGI in [2] is 297 nM, 1.63 µM, 5.91 µM; in [3], 198 nM [1 test] and 3.83 µM, 11.5 µM [mean of 3 tests]; in assay [4], 3.04 µM and 74 µM; in assay [7], 272 nM, 1.59 µM, 15.4 µM; in assay [8] it was 30.9 µM and > 500 µM. The GI50 in [5] is 83.6 nM and 18.2 µM; in [6] it was 635 nM and 56.9 nM; in assay [8], 16.1 µM and > 500 µM.
Consider `CC(=O)O[C@@]12CO[C@@H]1C[C@H](O)[C@@]1(C)C(=O)[C@H](O)C3=C(C)[C@@H](OC(=O)[C@H](O)[C@@H](NC(=O)OC(C)(C)C)c4ccccc4)C[C@@](O)([C@@H](OC(=O)c4ccccc4)C12)C3(C)C` (stereo partly specified), for which the GI50 was < 5 nM and 416 nM in [1]; 49.9 nM and 11.2 µM in [9]; 10.8 nM and 14 µM in [12]. Also, the TGI in assay [10] was 6.57 nM and > 100 µM; in [11], 5.54 nM and 11.5 µM.
`COc1cccc2c1C(=O)c1c(O)c3c(c(O)c1C2=O)C[C@@](O)(C(=O)CN1CCOCC1)C[C@@H]3OC1CC(N)C(O)C(C)O1` (stereo partly specified): the TGI in assay [13] is 0.894 nM and 40 µM; in assay [14] it was 0.918 nM and 29.3 µM.
